From the supplement of paper PMC3334620
Whole data set: some 33,000 sequences, median “E-score (-0.5 to 0.5)” near -0.041, cut for the highest 2% near 0.37. This is one part of the list.

Target: T1, Ecm22 (UniProt Q05958)
T1 sequence: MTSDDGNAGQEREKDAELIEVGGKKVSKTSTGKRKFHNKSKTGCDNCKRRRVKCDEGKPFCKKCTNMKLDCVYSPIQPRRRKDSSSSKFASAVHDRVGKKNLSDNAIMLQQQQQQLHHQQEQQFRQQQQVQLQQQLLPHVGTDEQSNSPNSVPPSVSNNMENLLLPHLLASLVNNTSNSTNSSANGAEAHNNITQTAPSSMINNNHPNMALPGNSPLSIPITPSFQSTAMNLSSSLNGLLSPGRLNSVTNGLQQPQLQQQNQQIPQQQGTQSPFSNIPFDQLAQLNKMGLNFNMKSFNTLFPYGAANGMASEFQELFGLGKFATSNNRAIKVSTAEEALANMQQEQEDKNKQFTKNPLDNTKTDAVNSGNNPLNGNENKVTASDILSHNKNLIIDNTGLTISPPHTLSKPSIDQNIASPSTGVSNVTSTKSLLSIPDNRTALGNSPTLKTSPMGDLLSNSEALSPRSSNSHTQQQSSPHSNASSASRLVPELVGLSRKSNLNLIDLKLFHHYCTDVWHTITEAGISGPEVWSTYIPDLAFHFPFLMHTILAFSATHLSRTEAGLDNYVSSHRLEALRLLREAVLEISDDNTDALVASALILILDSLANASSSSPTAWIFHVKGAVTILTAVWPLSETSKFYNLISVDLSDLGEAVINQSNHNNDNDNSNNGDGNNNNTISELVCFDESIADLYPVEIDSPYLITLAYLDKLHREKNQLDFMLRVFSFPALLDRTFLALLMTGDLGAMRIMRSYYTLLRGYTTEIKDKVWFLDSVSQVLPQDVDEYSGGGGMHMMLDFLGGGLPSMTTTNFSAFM
Assay: PBM E-score (8-mer binding enrichment) (E-score (-0.5 to 0.5)); higher = stronger / more preferred TF binding; most listed sequences are background and not binding sites
Conditions: protein concentration: 200 nM; construct: GST-full length
How it was run: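 PURExpress in vitro transcription/translation supplied GST-tagged yeast transcription factors, either full-length or DNA-binding domain. Applied at about 100-200 nM to universal all-10-mer Agilent arrays double-stranded by primer extension, the bound protein was detected with fluorescent anti-GST. E-scores, modified Wilcoxon-Mann-Whitney statistics, were given by the Universal PBM Analysis Suite to ungapped eight-base words pooled with their reverse complements after masliner normalisation.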

Going from ACAGTGGT to CCGATCTA, the “PBM E-score” value falls from 0.0263 to -0.0276.

Going from GGCGGGGA to GCAACGCC, the “PBM E-score” value falls from 0.191 to -0.0777.

First: ATATTAAG
Second: CACTGGTC
The “PBM E-score” value of the first is higher: 0.0746 for the first, 0.0645 for the second.

Compared with AACGGCCA, AAAACTTT is lower in “PBM E-score” value: 0.135 for the first, -0.122 for the second.

Compared with AAATGACC, ACACGCGT is higher in “PBM E-score” value: -0.11 for the first, 0.0936 for the second.

First: GCGTCAAA
Second: CGGTTACC
The “PBM E-score” value of the first is lower: 0.0662 for the first, 0.304 for the second.

First: AGTTGCTC
Second: GCGTAGGA
The “PBM E-score” value of the first is lower: -0.13 for the first, -0.0388 for the second.

First: AGCCATCC
Second: CTGAACAC
The “PBM E-score” value of the first is lower: -0.238 for the first, 0.0936 for the second.

Compared with AGCTGGGA, CACAGCCA is higher in “PBM E-score” value: -0.167 for the first, -0.0456 for the second.

Compared with AGGCCGTC, GAGTACCC is lower in “PBM E-score” value: 0.0471 for the first, 0.042 for the second.

Compared with CGCCCAGC, CACGACCA is higher in “PBM E-score” value: -0.00552 for the first, 0.0103 for the second.

First: CTACCTGC
Second: ATCCGAGA
The “PBM E-score” value of the first is lower: -0.202 for the first, 0.279 for the second.

First: AGGTATAG
Second: ACCTGTAG
The “PBM E-score” value of the first is higher: -0.0117 for the first, -0.136 for the second.

Going from CATCCCGG to ATGTGCCG, the “PBM E-score” value rises from -0.164 to -0.0771.

Compared with GTGGCAGA, ATAAGAGG is higher in “PBM E-score” value: -0.176 for the first, 0.102 for the second.

Going from ACAAGAAG to CGAAATTA, the “PBM E-score” value rises from -0.0478 to 0.0197.

Going from CCGCTTAC to GAACATGA, the “PBM E-score” value falls from 0.0978 to -0.162.

Compared with TACAAACA, AACCCTGA is lower in “PBM E-score” value: 0.108 for the first, -0.203 for the second.

Compared with TTGCCAAA, CCCTCGCC is lower in “PBM E-score” value: 0.082 for the first, -0.0526 for the second.

Going from CATGCCTA to GCAAGGGC, the “PBM E-score” value falls from -0.134 to -0.266.

First: ATCGATTG
Second: AACGCCAG
The “PBM E-score” value of the first is higher: 0.0987 for the first, 0.0327 for the second.

Going from CACGCGCG to CTTATGCC, the “PBM E-score” value falls from -0.0266 to -0.0616.

Compared with CCGGCACC, CTATCGCA is higher in “PBM E-score” value: -0.0607 for the first, 0.0959 for the second.

Compared with GCCTTGTA, CGTAGGTA is higher in “PBM E-score” value: -0.209 for the first, 0.0163 for the second.

Going from CCCAATCA to ATGTGACA, the “PBM E-score” value rises from -0.24 to -0.0479.

Going from CGCCAAAG to ATAGATTG, the “PBM E-score” value rises from -0.297 to 0.0287.

Going from GAGCCACA to ACGACTGC, the “PBM E-score” value rises from -0.0887 to 0.308.

Going from AAACTCAC to CTGTGCTA, the “PBM E-score” value falls from -0.039 to -0.132.

Going from AGAACTAG to TCGCGCGA, the “PBM E-score” value rises from -0.224 to 0.151.

Compared with TAACGTTA, ATTGATCC is lower in “PBM E-score” value: 0.0399 for the first, -0.0658 for the second.

Compared with AGATCCAA, CGAATACC is higher in “PBM E-score” value: -0.0669 for the first, 0.143 for the second.

Compared with CAAGTGCG, AGATCTCC is lower in “PBM E-score” value: -0.0245 for the first, -0.121 for the second.

Compared with AGGCCGGG, ATACCGGA is higher in “PBM E-score” value: -0.0729 for the first, -0.0331 for the second.

First: CGCAGAAG
Second: GGGTCGAA
The “PBM E-score” value of the first is higher: 0.00639 for the first, -0.0301 for the second.

Going from ATATCATG to CCTTCTAA, the “PBM E-score” value falls from -0.0308 to -0.195.

Going from CGAATACA to CCTAGGGC, the “PBM E-score” value falls from 0.187 to -0.246.

Compared with ATGTGCAG, CATGAATG is higher in “PBM E-score” value: -0.234 for the first, -0.0686 for the second.

Compared with ATTATTAC, GCTGGCTA is lower in “PBM E-score” value: 0.129 for the first, -0.107 for the second.

Going from CCAGCGGG to AAAACACG, the “PBM E-score” value rises from -0.235 to 0.0336.

Going from ATATGTAG to ATGCAGAA, the “PBM E-score” value rises from -0.256 to -0.0632.

First: GCAGTAAA
Second: AGCTTAAC
The “PBM E-score” value of the first is lower: -0.0139 for the first, 0.0691 for the second.

First: AGTTTTCC
Second: CATACTTC
The “PBM E-score” value of the first is higher: 0.143 for the first, -0.128 for the second.

Going from CTTCCTTC to AGAAAGAT, the “PBM E-score” value rises from -0.0503 to -0.02.

First: TGCGGCAA
Second: GTAACCAC
The “PBM E-score” value of the first is lower: -0.186 for the first, -0.0757 for the second.

First: AAGGTGTC
Second: ACGGTAGT
The “PBM E-score” value of the first is lower: -0.0799 for the first, 0.0637 for the second.

Compared with CGCAGGAG, AATAGGGG is higher in “PBM E-score” value: -0.122 for the first, -0.11 for the second.

First: GCCCACAC
Second: AAACGCTG
The “PBM E-score” value of the first is lower: -0.273 for the first, 0.0348 for the second.

Going from ATTAGGGA to CTATGCTC, the “PBM E-score” value falls from -0.14 to -0.211.

Going from CTTTTACC to CTCTGGCA, the “PBM E-score” value falls from -0.0226 to -0.202.

Compared with AATCAGCC, TTCTTCAA is lower in “PBM E-score” value: -0.107 for the first, -0.138 for the second.

First: CTGTTGTC
Second: TAAGATAA
The “PBM E-score” value of the first is lower: -0.108 for the first, -0.0986 for the second.

First: ATCTTGAA
Second: ACAGGGTC
The “PBM E-score” value of the first is higher: -0.0726 for the first, -0.143 for the second.

First: AGGGTACA
Second: CGTCTTAA
The “PBM E-score” value of the first is lower: -0.0565 for the first, 0.0348 for the second.

First: GTTTATGA
Second: CGATGTGA
The “PBM E-score” value of the first is higher: 0.13 for the first, 0.123 for the second.

First: ATACCTGG
Second: CAGTGAGA
The “PBM E-score” value of the first is lower: -0.25 for the first, -0.192 for the second.

First: CGCTTTTC
Second: GACAAGAC
The “PBM E-score” value of the first is higher: 0.152 for the first, -0.0125 for the second.

Compared with TCCAAACA, AACGTTGT is higher in “PBM E-score” value: -0.186 for the first, 0.15 for the second.

Compared with CGAAGACG, AGTCGGTC is higher in “PBM E-score” value: 0.0817 for the first, 0.194 for the second.

First: AATGTTAC
Second: CGGTCTTA
The “PBM E-score” value of the first is higher: 0.0907 for the first, -0.0511 for the second.

Compared with AGCTTCTC, GAACTTAC is lower in “PBM E-score” value: 0.101 for the first, 0.0627 for the second.

Going from GGTGGCGA to CACATACC, the “PBM E-score” value falls from 0.153 to -0.0698.

First: CGGACAAA
Second: GTCACGAA
The “PBM E-score” value of the first is higher: 0.0646 for the first, 0.0416 for the second.

Going from CTGGACGA to AGCAAAAT, the “PBM E-score” value rises from -0.246 to 0.0427.

Compared with CGTGGGCC, AAAACGGC is higher in “PBM E-score” value: -0.165 for the first, 0.154 for the second.

Going from CGGAACAA to CCTACTAA, the “PBM E-score” value falls from 0.168 to -0.119.

Compared with TGCGAGAA, CCGGTTCC is lower in “PBM E-score” value: 0.267 for the first, -0.0978 for the second.

Compared with ACTTATCG, CGAGCCCG is higher in “PBM E-score” value: 0.0244 for the first, 0.224 for the second.

Going from CCTGGCAG to CCGTGGAA, the “PBM E-score” value rises from -0.123 to -0.121.

Compared with ACTGCAAA, TATGCTGA is lower in “PBM E-score” value: -0.129 for the first, -0.203 for the second.

Going from CCCTAACC to ACTCCTAC, the “PBM E-score” value rises from -0.264 to -0.222.

Going from AGACTCGG to CTGCCCAC, the “PBM E-score” value falls from -0.0981 to -0.311.

Going from GCATAAGC to CAACATTA, the “PBM E-score” value rises from -0.0897 to 0.00217.

Going from ACCACTCT to ACGTCGAC, the “PBM E-score” value rises from -0.111 to 0.0174.

Compared with ATACCAAG, CATGTGTC is lower in “PBM E-score” value: 0.0186 for the first, -0.116 for the second.

Compared with CCCAGAGA, ACCATACC is higher in “PBM E-score” value: -0.156 for the first, -0.0348 for the second.

Compared with AATATACC, ATGAACCA is lower in “PBM E-score” value: 0.00797 for the first, -0.0923 for the second.

Going from ATCAGCAT to ACGAGGAG, the “PBM E-score” value rises from -0.0651 to 0.349.

Compared with AAGTGGGC, AAAAGTTT is lower in “PBM E-score” value: 0.0397 for the first, -0.145 for the second.

Going from CCCTACGA to CGACCTCA, the “PBM E-score” value falls from 0.161 to 0.0343.

Compared with CGCTGATA, ACGGCTGG is higher in “PBM E-score” value: 0.0357 for the first, 0.069 for the second.

First: ACAGGCGG
Second: AGGTACGG
The “PBM E-score” value of the first is lower: -0.222 for the first, 0.424 for the second.

Going from ATGACATG to CAGAGTAG, the “PBM E-score” value rises from -0.182 to -0.136.

Going from ACGACAAG to GACAGTCC, the “PBM E-score” value falls from 0.334 to -0.149.

First: GTCAAAAA
Second: CTTCGAGA
The “PBM E-score” value of the first is lower: -0.139 for the first, -0.0893 for the second.

Compared with CCTAGTCA, AAAGTGAC is lower in “PBM E-score” value: -0.118 for the first, -0.12 for the second.

Going from ACTGGCCT to TAAATATA, the “PBM E-score” value rises from -0.0517 to 0.109.
